For this assay, the target named is T1, HLA-A2 on the cell surface (HLA-A2 transfected T2 cell line; SNB19 glioma cells) (human).
T1 construct: whole, on cells; Class I MHC on cells; also called HLA-A*0201
The assay is described as follows: T2 cell HLA-A2 stabilisation, flow cytometry, peptide 1 nM overnight. The protocol:
The binding capability of these modified peptides was assessed using an HLA-A2 transfected T2 cell line. Aliquots of T2 cells were incubated with modified peptides or IL-13Rα2₃₄₅₋₃₅₃ at 1 nM overnight, and then examined for the surface expression levels of HLA-A2 on T2 cells by flow cytometry. Since stable binding of HLA-A2 with peptide epitopes further stabilizes the surface expression of HLA-A2 (Francini et al., 2002; Alves et al., 2003), quantitative expression levels of HLA-A2, which is indicated by Mean Fluorescence Intensity (MFI) in Table 1, correlate with the binding affinity of the peptide-epitopes that are co-incubated with the T2 cells.

B1: IL-13Rα2-A1V9 peptide (W → A at P1, and I → V at P9) (peptide)
peptide: ALPFGFILV
notes: Synthetic modified peptide; also called IL-13Rα2345-353:1A9V
On to B1, for which the “Binding Index (MFI)” value is 463 MFI.

The values are drawn from patent publication US20160114017A1 (UNIVERSITY OF PITTSBURGH OF THE COMMONWEALTH SYSTEM OF …, published 2016).
